Consider 54 molecules from ChEMBL document CHEMBL4888484, “Replenishing the malaria drug discovery pipeline: Screening and hit evaluation of the MMV Hit Generation Library 1 (HGL1) against asexual blood stage Plasmodium falciparum ,using a nano luciferase reporter read-out” (2022).

Screen size: about 150,000 compounds; about 540 (0.36%) showed an effect of 50% or more. This is one part of the list.

The assay deals with Plasmodium falciparum. Briefly: Primary screen in NF54 nanoGlo assay, in single point, at 2uM, 72h; a lower Z score goes with more inhibition. It counts as functional, Erythrocyte. The settings on record: timepoint 72 hour.
On to `O=C(NCC1COC2(CCCCCC2)O1)C1CCCN1C1CCOCC1` (stereo not drawn), for which the “% Inhibition” value was -14% and the Z score is on record as 1.79.
As to `Cn1cc(-c2ccnc(C=Cc3ccccc3Br)n2)cn1`, the “% Inhibition” value was 0% and the Z score is recorded as -0.05.
As for `COc1ccc(CCC(=O)Nc2cccc(N3CCCC3=O)c2)cc1`, the “% Inhibition” value is listed as -19% and the Z score is 2.41.
`COc1ncc(NS(=O)(=O)Cc2ccc(C)cc2)cn1`: the “% Inhibition” value worked out at 13% and the Z score is on record as -1.62.
Consider `O=C(N[C@@H]1CN(Cc2ccc3c(c2)CCO3)C[C@H]1CO)c1cccnc1`, for which the “% Inhibition” value is given as -8% and the Z score is listed as 1.35.
For the molecule `Cn1ccc2ccn(CC(=O)NCc3ccc4c(c3)OCO4)c(=O)c21`, the “% Inhibition” value was 12% and the Z score was -1.46.
With `O=C(Cc1cccc(F)c1)O[C@H](c1nc2ccccc2o1)C(F)(F)F`, the “% Inhibition” value was -3% and the Z score is reported as 0.45.
With `c1cc(-c2nc([C@H]3CCOC3)no2)c2[nH]ccc2c1`, the “% Inhibition” value is listed as -3% and the Z score is given as 0.53.
With `COc1cccc(-c2nc(NC3CC3)nc3nn(-c4ccccc4)c(N)c23)c1`, the “% Inhibition” value is on record as -5% and the Z score was 0.65.
With `CC(C)(C)n1ncnc1NCc1cccc2c1OCC2`, the “% Inhibition” value is -15% and the Z score is on record as 3.05.
Regarding `Cc1cc([C@H](C)NC(=O)CNC(=O)c2ccccc2C)c(C)s1`, the “% Inhibition” value amounted to 4% and the Z score is listed as -0.47.
Turning to `COC(C)CNC(C)c1ccc(C#N)cc1` (stereo not drawn), the “% Inhibition” value came to 12% and the Z score was -1.56.
The corresponding values for `Cc1noc([C@H](C)OC(=O)CN2CCN(Cc3ccccc3)CC2)n1` are -3% and 0.3.
For the molecule `CN(C)c1ccc(C(=O)N2CCN=C2N2CCCCC2)cc1`, the “% Inhibition” value is reported as -3% and the Z score was 0.26.
As to `O=C(COc1ccc(F)cc1)Nc1ccccc1C(=O)NC1CC1`, the “% Inhibition” value stood at 4% and the Z score is -0.53.
Take `CCc1ccc2nc(N(CCN3CCOCC3)C(=O)c3cc(C)no3)sc2c1`: the “% Inhibition” value was determined as 3% and the Z score was -0.46.
Regarding `Nc1ncc(Cl)cc1S(=O)(=O)Nc1ccn(CC(F)F)n1`, the “% Inhibition” value came to 5% and the Z score was -0.69.
The corresponding values for `CC(C)(C)c1noc(OCCCCC#N)n1` are -5% and 0.76.
Turning to `CC1=NN(c2ccccc2)C(=O)C12Cc1cc(C(F)(F)F)ccc1N1CCOCC12` (stereo not drawn), the “% Inhibition” value is 6% and the Z score is given as -0.89.
`CC[C@@H](COC)NC(=O)c1cc(-c2ccc(C3CCCCC3)cc2)on1`: the “% Inhibition” value is 1% and the Z score is -0.18.
The corresponding values for `CCN1CCN(c2nnc(-n3cccc3CN3CCN(c4ccc(OC)cc4)CC3)s2)CC1` are -6% and 1.09.
With `CCCCc1nc(-c2nccn2Cc2ccoc2)c[nH]1`, the “% Inhibition” value worked out at 5% and the Z score was -0.67.
Turning to `Cc1ccc(NS(=O)(=O)c2c(C)[nH]c(C)c2-c2nc(C3CC3)no2)c(F)c1`, the “% Inhibition” value is -10% and the Z score is 1.87.
For the molecule `Cc1nc(CC2CC2)sc1C(=O)N1CCN(C)Cc2ccccc21`, the “% Inhibition” value was -4% and the Z score is on record as 0.59.
For the molecule `O=C1CC[C@@]2(CCCN(c3ccccn3)C2)CN1CCc1c[nH]cn1`, the “% Inhibition” value is reported as -8% and the Z score came out at 1.14.
Regarding `CC(=O)N(CC(=O)N1CCN(c2ccc(-c3ccc(Cl)cc3Cl)nn2)CC1)C1CC1`, the “% Inhibition” value is -1% and the Z score is on record as 0.16.
For the molecule `COC(=O)c1cc(NS(=O)(=O)N2CCCCC2)nn1C`, the “% Inhibition” value is -9% and the Z score stood at 1.65.
In the case of `O=C(Nc1ccc(F)cc1F)c1nnc(CNS(=O)(=O)Cc2ccccc2)s1`, the “% Inhibition” value is on record as -10% and the Z score came out at 1.62.
Turning to `Cn1c(=O)c2ccn(CC(=O)N3CCN(c4ccccc4F)CC3)c2n(C)c1=O`, the “% Inhibition” value is given as -11% and the Z score was determined as 1.14.
Regarding `Cc1cc(CNC(=O)N2CCC(S(N)(=O)=O)CC2)ccc1-c1ccccc1`, the “% Inhibition” value was -1% and the Z score amounted to 0.13.
Take `CCc1ccc(C(=O)CCC(=O)Nc2ncccc2O)cc1`: the “% Inhibition” value is -8% and the Z score was 1.22.
`C[C@@H]1CN(C[C@@H]2CN(C(=O)CCC3CC3)C[C@@H]2CO)C[C@H](C)O1`: the “% Inhibition” value is reported as -21% and the Z score was 1.81.
Consider `CC(C)CCn1c(C(=O)N2CCCC2)cc2cc(NC(=O)c3ccc(C(C)(C)C)cc3)ccc21`, for which the “% Inhibition” value is listed as 8% and the Z score is on record as -1.49.
For `O=C1CC[C@H](NC(=O)c2ccccc2OCC(=O)Nc2ccccc2F)CN1`, the “% Inhibition” value was -3% and the Z score is 0.48.
The like results for `C#CCOCC(O)CN(CC(=O)N1CCc2sccc2C1COc1ccc(F)cc1)C(C)C` (stereo not drawn) were, in that order, -15% and 2.87.
The like results for `CC(C)CCn1c(=O)c2ccccc2n(CC(=O)NC2CCCC2)c1=O` were, in that order, -6% and 0.79.
For `COC(=O)c1cc(NC(=O)c2cc(C3CC3)nc3ccccc23)cc(C(=O)OC)c1`, the “% Inhibition” value is reported as -9% and the Z score is reported as 1.01.
In the case of `CN(C)CCN1C[C@]2(CCCN(C(=O)COc3ccccc3O)C2)CCC1=O`, the “% Inhibition” value is -2% and the Z score was 0.26.
Turning to `O=C(CCN1Cc2ccccc2OC(c2ccccc2)C1)N1CCC(C(O)c2cccnc2)CC1` (stereo not drawn), the “% Inhibition” value is on record as -1% and the Z score stood at 0.11.
As for `CC(C)[C@H](NCc1nc(C(F)(F)F)cs1)C1(CO)CCC1`, the “% Inhibition” value is reported as -15% and the Z score was determined as 1.9.
For `CC(C)NC(=O)c1ccc(Cl)c(NC(=O)[C@]2(C)CCCCN2C(=O)c2ccccc2)c1`, the “% Inhibition” value is -4% and the Z score is 0.42.
In the case of `N#CCCN(CC(F)(F)F)C(=O)Cc1ccc(F)cc1Cl`, the “% Inhibition” value is reported as 0% and the Z score was -0.06.
The like results for `CC(C)NC(=O)N[C@H]1CC(=O)N(C(C)C)C1` were, in that order, 0% and 0.07.
For the molecule `CC1=NO[C@H](C(=O)N2CCC3(CCC(=O)N(Cc4cccnc4)C3)CC2)C1`, the “% Inhibition” value is -9% and the Z score was 1.43.
Regarding `COc1cc2c(cc1OC)CN(c1ccc(S(=O)(=O)N3CCCC3)cn1)CC2`, the “% Inhibition” value is on record as 4% and the Z score was -0.35.
In the case of `Fc1cc(F)cc(CN2CCC[C@H]2c2ccn[nH]2)c1`, the “% Inhibition” value is reported as -7% and the Z score is 0.87.
The like results for `COc1ccc2cc1OCCn1cc(nn1)CO[C@H]1CN(C(=O)c3cnn(C(C)C)c3)C[C@@H]1NC2=O` were, in that order, -4% and 0.81.
Take `CC(C)Cc1nc(CNS(=O)(=O)c2cn[nH]c2)no1`: the “% Inhibition” value is -8% and the Z score was found to be 1.6.
In the case of `CCCOc1cccc(OCCNCC)c1`, the “% Inhibition” value is recorded as -2% and the Z score is 0.44.
The corresponding values for `CCOc1ccnc(NCCc2scnc2C)n1` are 3% and -0.66.
Turning to `Clc1ccccc1-c1cc(CN[C@H]2CCOC2)no1`, the “% Inhibition” value is recorded as -8% and the Z score is on record as 1.19.
Take `O=S(=O)(Cc1ccccc1)N1CCN(Cc2cccc(F)c2)C2(CCOCC2)C1`: the “% Inhibition” value is -3% and the Z score is reported as 0.56.
`CCN(CCO)c1ccnc(Cc2ccccc2)n1`: the “% Inhibition” value is -15% and the Z score was 2.23.
The like results for `CCN(CC)C(=O)C(C)NC(=O)NCC1CCCO1` (stereo not drawn) were, in that order, -31% and 3.63.

By % Inhibition is commonly meant the change of the read-out against control, counted positive when it falls.
